Results reported in PMC4336329 (PLoS ONE, 2015).
Hit rate of the full screen: of about 310,000 compounds, about 14,000 (4.5%) showed an effect of 50% or more. The effect is printed as a negative number. This is one part of the list.

Target: human ether-à-go-go-related gene (hERG) potassium channel (human, UniProt Q12809)
Assay: primary screen, population patch clamp on CHO cells stably expressing hERG
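Note: peak tail current of the secondary pulse compared with the same well before compound.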

Sequence of human ether-à-go-go-related gene (hERG) potassium channel (Q12809 whole entry, looked up): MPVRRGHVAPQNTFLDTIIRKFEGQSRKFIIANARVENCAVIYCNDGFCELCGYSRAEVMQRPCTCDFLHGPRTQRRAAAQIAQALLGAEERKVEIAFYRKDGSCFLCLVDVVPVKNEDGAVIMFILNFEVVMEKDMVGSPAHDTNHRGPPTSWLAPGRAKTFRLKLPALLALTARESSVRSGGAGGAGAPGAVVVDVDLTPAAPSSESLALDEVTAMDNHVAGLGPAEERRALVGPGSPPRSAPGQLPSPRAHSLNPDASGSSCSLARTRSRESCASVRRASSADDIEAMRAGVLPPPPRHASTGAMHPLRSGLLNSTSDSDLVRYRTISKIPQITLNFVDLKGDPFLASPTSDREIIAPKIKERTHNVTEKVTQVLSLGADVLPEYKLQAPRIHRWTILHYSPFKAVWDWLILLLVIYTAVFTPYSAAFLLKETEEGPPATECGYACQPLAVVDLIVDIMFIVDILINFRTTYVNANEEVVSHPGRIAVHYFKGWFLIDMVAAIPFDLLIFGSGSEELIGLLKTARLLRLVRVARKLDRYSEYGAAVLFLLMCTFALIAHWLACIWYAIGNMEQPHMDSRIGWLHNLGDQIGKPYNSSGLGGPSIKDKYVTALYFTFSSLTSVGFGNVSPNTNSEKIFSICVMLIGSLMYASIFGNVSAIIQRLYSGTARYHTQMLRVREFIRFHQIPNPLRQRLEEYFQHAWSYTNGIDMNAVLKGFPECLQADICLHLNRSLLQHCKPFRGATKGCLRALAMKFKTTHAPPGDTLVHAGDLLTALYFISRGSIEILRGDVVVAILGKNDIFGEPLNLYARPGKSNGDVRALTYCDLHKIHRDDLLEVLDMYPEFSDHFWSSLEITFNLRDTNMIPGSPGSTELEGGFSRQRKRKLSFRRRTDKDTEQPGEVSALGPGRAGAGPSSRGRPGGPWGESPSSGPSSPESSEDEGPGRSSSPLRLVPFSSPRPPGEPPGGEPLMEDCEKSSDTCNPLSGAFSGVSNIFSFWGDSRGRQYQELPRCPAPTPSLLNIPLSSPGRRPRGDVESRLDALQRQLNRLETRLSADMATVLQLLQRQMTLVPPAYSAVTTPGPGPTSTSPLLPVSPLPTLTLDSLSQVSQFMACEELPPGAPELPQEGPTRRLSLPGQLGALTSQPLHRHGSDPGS

Row | Compound | hERG current change (%, negative = inhibition) at 10uM
1 | COCc1cc(C)nc(SCC(=O)NCc2ccco2)c1C#N | -3.28%
2 | COc1ccccc1NC(=O)Cc1noc(CSc2nnc(C)n2C)n1 | 3.75%
3 | O=C(CCc1nc(-c2ccccc2Cl)no1)NCC1CCCO1 (centres unmarked) | 1.85%
4 | N#Cc1c(NC(NC(=O)c2ccco2)C(=O)c2ccccc2)sc2c1CCCC2 (centres unmarked) | 1.5%
5 | CCOC(=O)C1=C(C)NC(C)=C(C(=O)OCC)C1C(=O)OCC(=O)N(C)C | 12.2%
6 | COc1cccc(C2=NOC(C(=O)N3CCOCC3)C2)c1 (centres unmarked) | -16.9%
7 | COc1ccc(NC(=O)CN(C)S(=O)(=O)c2ccc(Br)s2)cc1OC | 13.2%
8 | N/C(=N/OC(=O)c1ccccc1Cl)c1ncc([N+](=O)[O-])s1 | 19.5%
9 | Cc1ccc(C2CC(c3ccc(NS(C)(=O)=O)cc3)=NN2C(=O)c2ccco2)cc1 (centres unmarked) | -78.5%
10 | COCCCNC(=O)c1c[nH]c2ccc(S(=O)(=O)N3CCc4ccccc43)cc2c1=O | 14.6%
11 | C=C(C)COc1ccc(-c2ncnc(C(F)(F)F)c2-c2ccc(OC)cc2)c(O)c1 | 16.3%
12 | CCOC(=O)C(NC(=O)c1cccc(Cl)c1)(Nc1nnc(C)s1)C(F)(F)F (centres unmarked) | 8.54%
13 | COc1ccc(Cl)cc1C(=O)NC1=NCCS1 | -0.932%
14 | Cc1c(C(=O)N2CCN(c3ccccn3)CC2)sc2ncnc(N3CCN(c4ccccc4)CC3)c12 | -32.8%
15 | Cc1nc2ccc(NC(=O)N3CCSCC3)cc2s1 | 16.3%
16 | O=C(COC(=O)c1ccc(Br)o1)Nc1ncc(Cl)cc1Cl | 21.5%
17 | CCOC(=O)c1cnc(C(F)(F)F)nc1Oc1ccccc1 | 5.4%
18 | CCn1nnc2sc3c(c2c1=O)CCC(C)C3 (centres unmarked) | -1.31%
19 | CC1CCN(CCC(=O)NN)CC1 | 8.2%
20 | Cc1ccc(-c2ccc(/C=N\NC(=O)C3C(=O)NCC3c3ccccc3)o2)cc1Cl (centres unmarked) | -16.9%
21 | Cc1snc(SCc2cccc(Cl)c2)c1C#N | 7.09%
22 | Cc1ccc(CCNC(=O)C2CC(=O)N(C3CCCCC3)C2)cc1 (centres unmarked) | 9.48%
23 | COc1ccc(NC(=O)c2cc(-c3ccccn3)nc3c(C)cc(C)cc23)c(C)c1 | 47.2%

Row | Compound | hERG current change (%, negative = inhibition) at 10uM
24 | O=C(CN1CCCCC1)NCCNc1ccc(C(F)(F)F)cc1[N+](=O)[O-] | -41.8%
25 | O=C(Nc1ccccc1C(F)(F)F)c1cccnc1 | 17.4%
26 | COc1ccccc1NC(=O)CSCC(N)=O | 15.4%
27 | CN(C)c1cccc(C(=O)NNC(=S)NC2CC3CCC2C3)c1 (centres unmarked) | 7.29%
28 | CCN1CCC(CNCc2cn(-c3ccc(OC)cc3)nc2-c2ccccc2Cl)C1 (centres unmarked) | -9.43%
29 | O=C(CNC(=S)N(Cc1ccccc1F)C1CCCCC1)NCC1CCCO1 (centres unmarked) | 2.47%
30 | Cc1nc2ccccc2c(=O)n1-c1ccc(C(=O)O)cc1 | 0.562%
31 | Cc1ccc(C(=O)C2CN(C)CC2C(=O)c2ccc(C)cc2)cc1 (centres unmarked) | -57%
32 | CN(C)S(=O)(=O)c1ccc(NC(=O)C2COc3ccccc3O2)cc1 (centres unmarked) | -7.07%
33 | O=C(Nc1nnc(C2CC2)s1)c1cc(S(=O)(=O)N2CCCCC2)ccc1N1CCOCC1 | -7.12%
34 | O=C(NCc1ccc(F)cc1)c1ccc(N2CCc3ccccc32)c([N+](=O)[O-])c1 | -13.4%
35 | COc1cccc(-c2nn(CCC#N)cc2C(=O)Nc2ccccc2Cl)c1 | 5.09%
36 | COc1ccc(Cn2c(=O)[nH]c3cc(C(=O)NCCc4ccc(S(N)(=O)=O)cc4)ccc3c2=O)cc1 | 10.1%
37 | O=C(NNC(=S)NC1CCCCC1)c1ccc(Cl)s1 | 37.1%
38 | O=C(CSc1ccc(-c2ccccc2)nn1)c1cccs1 | 3.67%
39 | COCCN(Cc1cc2cc3c(cc2nc1Cl)OCO3)C(=O)c1ccc(C)cc1 | -53.2%
40 | COc1ccc(N(C(=O)c2cnsn2)C(C(=O)NC2CCCCC2)c2ccncc2)cc1 (centres unmarked) | -26.7%
41 | O=C(CSc1nc(C2CC2)nc2ccccc12)Nc1ccc2c(c1)OCCO2 | 3.48%
42 | O=C(Nc1nnc(-c2ccc(Cl)cc2)o1)C1=COCCO1 | 2.75%
43 | CS(=O)(=O)N1CCC(NC(=O)Nc2ccc(OC(F)(F)F)cc2)CC1 | -18.7%
44 | CCC(C)NC(=O)CNC(=O)c1nn(-c2ccc(OC)c(Cl)c2)c(=O)c2ccccc12 (centres unmarked) | -8.24%
45 | COC(C(=O)Nc1cccc(F)c1)c1ccccc1 (centres unmarked) | 10.9%
46 | CC(C(=O)NC1C=CS(=O)(=O)C1)N1C(=O)/C(=C\c2ccccc2)SC1=S (centres unmarked) | -4.04%

Row | Compound | hERG current change (%, negative = inhibition) at 10uM
47 | O=C(NCCS(=O)(=O)N1CCN(c2ccccc2)CC1)c1ccccc1F | 6.68%
48 | CC1=CC(=C2C(=O)NC(=S)NC2=O)C=C(C(F)(F)F)N1CCc1ccccc1 | 12.9%
49 | Cc1csc(NC(=O)c2cc(=O)[nH]c3ccccc23)n1 | 7.02%
50 | CCCn1c(N)c(C(=O)CN2CCc3ccccc3C2)c(=O)n(C)c1=O | -27.7%
51 | C=C(C)C1CC=C(C)/C(=N/NC(=O)COc2ccccc2Cl)C1 (centres unmarked) | 19.8%
52 | O=C(NCCc1csc(-c2ccccc2)n1)c1ccc(Br)o1 | -21.9%
53 | O=C(c1cnn(-c2cccc(F)c2)c1)c1ccccc1O | 5.63%
54 | CC(NC(=O)COc1cccnc1[N+](=O)[O-])c1ccc(F)cc1 (centres unmarked) | 2.07%
55 | O=C(CCC(=O)N(CC(=O)NC1CCCCC1)CC1CCCO1)Nc1nccs1 (centres unmarked) | 5.65%
56 | COc1ccc(C2CC(=O)N(c3ccccc3)C3=C2C(=O)CCC3)cc1 (centres unmarked) | 13.1%
57 | Cc1nc2ccc(NC(=S)N3CCC(C)CC3)cc2nc1C | -43.2%
58 | COc1ccc(/C=N/NC(=O)c2nc(Cl)c(Cl)c(N)c2Cl)cc1COc1ccccc1F | -4.09%
59 | CCOC(=O)C1=C(O)CSC1=Nc1ccccc1 | 1.34%
60 | COc1ccc(Oc2ncccc2[N+](=O)[O-])cc1 | 6.57%
61 | O=C(Nc1cccc(F)c1)N1CCC(n2c(=O)[nH]c3ccccc32)CC1 | -19%
62 | CCOc1ccc(S(=O)(=O)N(CC)CC)cc1NS(=O)(=O)c1ccc(F)c(F)c1F | -1.09%
63 | CCOc1ccc(NC(=O)CCc2ccc(C)o2)cc1 | 14.6%
64 | COCCNC(=O)c1c(N)n(-c2cccc(C)c2)c2nc3ccccc3nc12 | -24.7%
65 | Cc1c(C(=O)N2CCN(Cc3ccccc3)CC2)sc2ncnc(N3CCOCC3)c12 | -26.4%
66 | COc1ccccc1CNC(=O)C1CCN(S(=O)(=O)N2CC(C)CC(C)C2)CC1 (centres unmarked) | 11.2%
67 | COC(=O)c1sccc1NC(=O)C1CC=CCC1C(=O)O (centres unmarked) | 18.7%
68 | COc1ccc(N2C(=O)C3CCCN3C2c2cccc(Br)c2)cc1 (centres unmarked) | -0.299%
69 | Cc1cc(OCCN2CC2)c2ccccc2n1 | -8.54%

Row | Compound | hERG current change (%, negative = inhibition) at 10uM
70 | COCCn1c(SCC(=O)c2[nH]c(C)c(C(C)=O)c2C)nc2ccccc21 | -11.3%
71 | COc1ccc(NC(=O)NC23CC4(C)CC(C)(CC(C)(C4)C2)C3)cc1OC | 9.32%
72 | Cn1ncc2c(NNC(=O)c3ccc(Cl)c(Cl)c3)ncnc21 | -15.9%
73 | Cc1cccc(-c2nnc(SCC3CNC(=O)O3)n2-c2ccc(Cl)cc2)c1 (centres unmarked) | -40.3%
74 | O=C(NCc1ccccc1)C1CCC(CNS(=O)(=O)c2cccs2)CC1 (centres unmarked) | 10.5%
75 | Cc1cc(C)c(S(=O)(=O)N2CCN(C(=O)c3ccc(-n4cncn4)c([N+](=O)[O-])c3)CC2)c(C)c1 | -62.5%
76 | CC(C)CN(C(=O)COC(=O)CNC(=O)c1ccc(Cl)cc1)C1CCS(=O)(=O)C1 (centres unmarked) | 12.7%
77 | Cc1ccccc1NC(=O)CSc1nnc(-c2ccccn2)o1 | 4.41%
78 | CCC(C)NC(=O)CC1Oc2ccc(Cl)cc2NC1=O (centres unmarked) | 6.64%
79 | NC(=O)c1oc2ccccc2c1NC(=O)Cc1ccccc1 | 17.7%
80 | Cc1c(CC(=O)O)c(=O)oc2cc(OCc3nn[nH]n3)ccc12 | -0.585%
81 | CSc1nnc2ccc(-c3cccs3)nn12 | -8.27%
82 | COc1ccc(C2C(C(=O)c3ccco3)=C(O)C(=O)N2CC2CCCO2)cc1 (centres unmarked) | -3.78%
83 | COc1ccccc1Cn1c(=O)oc2ccc(C)cc21 | -2.44%
84 | C[C@H](NC(=O)c1ccccc1)C(=O)OCC(=O)Nc1ccc2c(c1)OCO2 | -1.08%
85 | Cn1c(SCCOc2ccc(Cl)cc2)nnc1-c1ccncc1 | -56.3%
86 | CCOC(=O)c1cc2c(=O)n3ccccc3nc2n(Cc2ccccc2)c1=N | -74.6%
87 | CCOc1ccc(-c2nn[nH]n2)cc1OCC | 11.3%
88 | CCCOc1ccc(-c2nnn(CC(=O)N3CCCC(C)C3)n2)cc1 (centres unmarked) | -0.918%
89 | O=C1CSC(c2cccnc2)N1Cc1ccc(Cl)c(Cl)c1 (centres unmarked) | -4.85%
